Measurements reported in article PMC3763533.
No constants are given. Whether binding was seen depends on the method and setting. Binding seen in cells or lysates may run through a third protein. Some binding calls cover weakened binding; strength is not graded here. Tags and fused reporters may be left off the sequences shown.

Sequences of proteins named here, by UniProt entry; tags and fusion partners are left off. A change or cut given only in a name is not applied to a line headed by its entry.
UniProt P17844: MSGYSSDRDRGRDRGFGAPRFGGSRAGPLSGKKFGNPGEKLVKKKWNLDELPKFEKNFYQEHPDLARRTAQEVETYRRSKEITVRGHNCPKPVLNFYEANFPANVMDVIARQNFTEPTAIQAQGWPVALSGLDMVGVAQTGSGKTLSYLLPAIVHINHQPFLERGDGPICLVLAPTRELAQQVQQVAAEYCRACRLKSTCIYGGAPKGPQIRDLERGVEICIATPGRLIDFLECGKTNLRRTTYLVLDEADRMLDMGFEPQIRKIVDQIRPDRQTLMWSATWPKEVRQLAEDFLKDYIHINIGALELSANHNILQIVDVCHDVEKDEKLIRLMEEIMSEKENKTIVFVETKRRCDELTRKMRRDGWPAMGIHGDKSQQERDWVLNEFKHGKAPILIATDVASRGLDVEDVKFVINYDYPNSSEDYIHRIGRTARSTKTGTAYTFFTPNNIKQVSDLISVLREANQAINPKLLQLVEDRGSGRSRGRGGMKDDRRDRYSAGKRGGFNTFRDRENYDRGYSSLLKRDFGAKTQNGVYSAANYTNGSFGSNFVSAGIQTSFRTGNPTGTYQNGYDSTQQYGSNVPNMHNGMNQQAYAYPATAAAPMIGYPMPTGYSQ
UniProt Q92841: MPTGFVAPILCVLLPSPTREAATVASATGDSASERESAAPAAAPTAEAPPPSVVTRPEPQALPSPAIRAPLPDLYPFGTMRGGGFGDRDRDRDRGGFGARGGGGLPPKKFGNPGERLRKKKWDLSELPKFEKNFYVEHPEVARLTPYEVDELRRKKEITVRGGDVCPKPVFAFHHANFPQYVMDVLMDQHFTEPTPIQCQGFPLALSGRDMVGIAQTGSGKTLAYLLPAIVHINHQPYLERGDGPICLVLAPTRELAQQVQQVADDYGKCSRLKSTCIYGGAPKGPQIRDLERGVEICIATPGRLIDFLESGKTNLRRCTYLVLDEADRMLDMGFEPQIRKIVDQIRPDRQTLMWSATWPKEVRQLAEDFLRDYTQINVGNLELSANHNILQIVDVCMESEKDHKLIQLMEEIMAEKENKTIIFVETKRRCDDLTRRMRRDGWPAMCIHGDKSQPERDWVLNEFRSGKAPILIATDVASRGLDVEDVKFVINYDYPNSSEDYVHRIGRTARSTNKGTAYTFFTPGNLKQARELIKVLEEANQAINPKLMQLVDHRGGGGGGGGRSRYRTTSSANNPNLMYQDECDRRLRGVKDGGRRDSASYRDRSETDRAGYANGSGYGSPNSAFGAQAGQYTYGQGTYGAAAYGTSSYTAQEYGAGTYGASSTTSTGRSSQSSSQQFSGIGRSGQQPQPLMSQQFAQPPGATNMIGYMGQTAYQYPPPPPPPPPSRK

Tests used:
FLAG-Upf3B 1-270 (human) = molecular target: T1, FLAG-Upf3B 1-270 (human) (UniProt Q9BZI7); test: co-IP; HeLa cells transfected 48 h with FLAG-Upf3B or a deletion mutant, lysed in the presence of RNase A, anti-FLAG antibodies; western blot
T1 sequence: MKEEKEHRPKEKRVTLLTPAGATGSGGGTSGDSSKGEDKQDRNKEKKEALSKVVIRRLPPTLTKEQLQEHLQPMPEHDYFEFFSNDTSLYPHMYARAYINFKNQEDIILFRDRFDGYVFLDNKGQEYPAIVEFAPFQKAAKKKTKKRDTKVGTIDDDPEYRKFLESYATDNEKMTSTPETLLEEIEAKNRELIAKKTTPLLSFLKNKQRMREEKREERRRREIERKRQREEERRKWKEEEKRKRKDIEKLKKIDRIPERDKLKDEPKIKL

[1] = molecular target: T2, FLAG-Upf3B 270-470 (human) (UniProt Q9BZI7); test: as above
T2 sequence: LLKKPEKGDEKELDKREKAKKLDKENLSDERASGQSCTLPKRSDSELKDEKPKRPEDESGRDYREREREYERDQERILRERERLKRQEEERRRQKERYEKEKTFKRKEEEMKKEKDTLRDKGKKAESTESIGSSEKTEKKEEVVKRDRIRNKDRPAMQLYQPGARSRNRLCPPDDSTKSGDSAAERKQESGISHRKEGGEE

[2] = molecular target: T3, FLAG-tagged hUpf3B (human) (UniProt Q9BZI7); test: as above
T3 sequence: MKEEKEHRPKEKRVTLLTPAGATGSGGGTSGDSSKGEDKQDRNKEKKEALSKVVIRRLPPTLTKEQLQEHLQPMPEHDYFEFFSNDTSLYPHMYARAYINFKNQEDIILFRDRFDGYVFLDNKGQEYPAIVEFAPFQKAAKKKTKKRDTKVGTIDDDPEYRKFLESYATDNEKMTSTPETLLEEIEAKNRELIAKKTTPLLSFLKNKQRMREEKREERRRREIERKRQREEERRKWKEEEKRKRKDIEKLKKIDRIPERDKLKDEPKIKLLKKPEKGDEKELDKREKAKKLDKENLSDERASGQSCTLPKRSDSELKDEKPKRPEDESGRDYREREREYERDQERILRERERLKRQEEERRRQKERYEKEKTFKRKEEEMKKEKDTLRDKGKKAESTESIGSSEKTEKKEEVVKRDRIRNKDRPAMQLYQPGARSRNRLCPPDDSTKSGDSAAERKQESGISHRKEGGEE

[3] = molecular target: T3, FLAG-tagged hUpf3B (human); test: pull-down; FLAG-Upf3B (bait) bound to anti-FLAG antibody on protein A-sepharose in the presence of RNase A overnight, washed; HeLa cell extracts with the KT3-tagged Ddx5 deletion mutant (prey) added for 4 h; western blot with anti-Upf3B and anti-KT3; only the target purified

binding (FLAG-Upf3B 1-270 (human))	binding [1]	binding [2]	binding [3]	Substance
no binding	binds	binds	–	Ddx5 (p68), endogenous (from UniProt P17844 1-614)
–	–	–	binds	Ddx5-1-189-KT3 (from UniProt P17844 1-189) (domain or fragment)
–	–	–	no binding	Ddx5-190-614-KT3 (from UniProt P17844 190-614) (domain or fragment)
–	–	binds	–	Ddx17 (p72), endogenous (from UniProt Q92841 1-729)
